Measurements: PubChem BioAssay AID1508624 (National Center for Advancing Translational Sciences (NCATS), 2021)
In all, about 48,000 compounds went through this assay and about 120 (0.25%) were called active. Roughly 4% stayed inconclusive and do not appear here. Calls follow the shape of the dose curve; as a rule, active = well fitted activation curve with a large enough effect; inconclusive = small, poorly fitted or top-dose-only effect, or another doubt; inactive = no such curve, though single readings can be large or run the other way. Some of the results follow.

experiment: Primary qHTS for Identification of Small Molecule Activators of Huntingtin-Antisense Promoter Activity; details: HEK293 HTT-AS promoter firefly luciferase reporter, 24 h; series mostly up to 57.5 µM; activity change, positive = activation: at the top concentration; also: nearly all actives have a fitted effect of over 55% in size
Procedure, shortened: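 HEK293 cells carrying firefly luciferase reporters were seeded at 2,500 per well in Opti-MEM and cultured for 24 h. They were then treated with compounds at up to 57.5 uM final for 24 h at 37 degrees C before Dual-Glo luminescence readout.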

| SMILES | activity change, positive = activation |
| --- | --- |
| CCN1CCN(CCCNC(=O)CS(=O)(=O)Cc2nc(-c3ccccc3C)oc2C)CC1 | inactive: -16.1% |
| CC(C)CN(C[C@H](O)[C@H](Cc1ccccc1)NC(=O)O[C@H]1CCOC1)S(=O)(=O)c1ccc(N)cc1 | inactive: -5.02% |
| Cc1ccc(-c2nnc(Nc3ccc(C(N)=O)cc3)c3ccccc23)cc1S(N)(=O)=O | inactive: -8.72% |
| COc1ccc(NC(=O)Cn2c(=O)c3cccn3c3ccccc32)cc1Cl | inactive: -14.3% |
| COc1cccc2sc(NC(=O)c3ccc(S(=O)(=O)N4CCC(C)CC4)cc3)nc12 | inactive: -45.5% |
| CCOC(=O)c1noc2ncnc(Nc3cc(Cl)c(OC)cc3OC)c12 | inactive: 0.706% |
| COc1ccc(C)cc1NC(=O)Nc1cc(C(=O)NCc2ccc(C)cc2)ccc1N1CCCC1 | inactive: 3.09% |
| COc1ccc(-c2nc3sc(CCNC(=O)Cc4ccc(F)cc4)c(C)n3n2)cc1 | inactive: 12% |
| Cc1sc(-c2cc3ccccc3oc2=O)nc1-c1ccc(Cl)c(Cl)c1 | inactive: 9.7% |
| Cc1nnc(N2CCCC(C(=O)NCCN(C)C)C2)c2nn(-c3ccccc3)c(C)c12 (stereo not given) | inactive: 11.3% |
| CCOc1ccc(CNCc2c(C(=O)O)c(C)n(Cc3ccc(C)cc3)c2C)cc1 | inactive: -16.7% |
| CCOc1ccccc1OCCCCn1c(-c2ccc(Cl)cc2)nc2ccccc2c1=O | inactive: -12.2% |
| COc1cc(Cl)c(NC(=O)CCc2nc3cccnc3n2-c2ccccc2)c(OC)c1 | inactive: -22.4% |
| CC(=O)Nc1c(C)nn(-c2ccccc2)c1N1CCC(C(=O)NCc2cccc(Cl)c2)CC1 | inactive: 16.9% |
| O=C(CSc1nc2cc3ccccc3cc2[nH]1)Nc1ccc(F)cc1 | inactive: -7.94% |
| CC1=C(C(=O)Nc2ccc(Cl)cc2)C(c2cccs2)n2nc(SCc3cccc(C)c3)nc2N1 (stereo not given) | inactive: 5.77% |
| Cc1ccc(NC(=O)c2cnc(SCC(=O)N3CCCc4ccccc43)n(C)c2=O)cc1 | inactive: -4.42% |
| CC(C)(C)OC(=O)N1CCC(c2c(C(=O)N3CCN(c4ccccc4F)CC3)cnn2-c2ccccc2Cl)CC1 | inactive: -23% |
| CCOc1ccc(NC(=O)CCNS(=O)(=O)c2ccc3c(c2)CCCC(=O)N3)cc1 | inactive: -10.6% |
| CCOc1ccc(NC(=O)c2c(NCc3cccnc3)sc3c2CCC(C)C3)cc1 (stereo not given) | inactive: -3.78% |
| CCN(CC)C(=O)Cn1c(=O)n(-c2ccc(C)c(C)c2)c(=O)c2c(C)c(C(=O)N(CC)CC)sc21 | inactive: 0.597% |
| CC(=O)c1sc(NC(=O)c2c(-c3ccccc3)c(-c3ccccc3)nn(C)c2=O)nc1C | inactive: -14.9% |
| CCN1CCN(C(=O)c2cnn(-c3ccc(F)cc3F)c2C2CCN(C(=O)OC(C)(C)C)CC2)CC1 | inactive: -9.29% |
| CC1CCc2onc(C(=O)N3CCN(c4ccc(F)cc4)CC3)c2C1 (stereo not given) | inactive: -30% |

| SMILES | activity change, positive = activation |
| --- | --- |
| CCCCCN1C(C(=O)c2ccccc2)=C(NC(=O)c2ccc(C)cc2)c2ccccc2S1(=O)=O | inactive: -18.1% |
| COc1ccc(OC)c(NC(=O)c2cnc(Nc3ccc(C)c(Cl)c3)c3ccccc23)c1 | inactive: -18.7% |
| CC(=O)c1ccc(O)c(C(N)=O)c1 | inactive: -2.59% |
| CC(C)Cn1c(C2CC(=O)N(c3ccccc3Cl)C2)nc2ccccc21 (stereo not given) | inactive: -2.2% |
| Cc1oc(-c2ccc(C(=O)NCCN(C)C)cc2)nc1CS(=O)(=O)c1ccccc1 | inactive: 5.31% |
| O=C(Cn1nc(-c2ccccc2)nc(Cc2ccccc2)c1=O)Nc1ccc(Cl)cc1 | inactive: 0.137% |
| Cc1cccc(NC(=O)Cn2nnc(C(=O)NCc3ccco3)c2N)c1 | inactive: -13.7% |
| Cc1cnc(Nc2ccc(F)cc2Cl)nc1-c1c[nH]c(C(=O)N[C@H](CO)c2cccc(Cl)c2)c1 | inactive: -57.2% |
| COc1ccc(Br)cc1C(=O)Nc1ccc(-c2nc3ncccc3o2)cc1C | inactive: -6.42% |
| Cc1cccc(-n2c(N)cc(=O)nc2SCC(=O)Nc2ccc(F)cc2)c1C | inactive: -6.43% |
| Cc1ccc(C(=O)NCC(=O)OCc2cc(=O)n3ccsc3n2)cc1 | inactive: -0.0206% |
| CCc1ccc(NC(=O)CSc2ccc3nc(-c4ccc(OC)cc4)cn3n2)cc1 | inactive: 14.5% |
| CCOC(=O)CCC(=O)Nc1nnc2n1CCS2 | inactive: -9.4% |
| O=c1c(NCc2ccccc2Cl)nccn1-c1ccccc1 | inactive: 9.14% |
| CC(=O)N1CCc2cc(S(=O)(=O)NC(CC(C)C)C(=O)NCc3ccccc3Cl)ccc21 (stereo not given) | inactive: -23.3% |
| COc1ccc(CNC(=O)CCc2c(C)c3cc4c(C)c(C)oc4cc3oc2=O)cc1 | inactive: -12.7% |
| CC(=O)Nc1ccc(-c2nnc3n(Cc4ccc(C)cc4)c(=O)c4ccccc4n23)cc1 | inactive: 4.87% |
| CCCCNc1ccc(C(=O)OCCN(C)C)cc1 | inactive: 6.92% |
| CCCCCOc1ccc(Cn2c(=O)oc3ccc(C)cc32)cc1OC | inactive: -32.5% |
| CCC(=O)N1CCc2cc(Br)cc(S(=O)(=O)N3CCC(C(=O)Nc4ccccc4F)CC3)c21 | inactive: -18.2% |
| Cc1cc(C)cc(C(=O)n2nc(C)c(S(=O)(=O)N3CCCCCC3)c2C)c1 | inactive: -21.7% |
| O=C(Nc1ccc(Cl)cc1Cl)c1cc(S(=O)(=O)N2CCCCCC2)ccc1F | inactive: -16.2% |
| CCCCS(=O)(=O)c1oc(-c2cccs2)nc1S(=O)(=O)c1ccc(F)cc1 | inactive: -93.6% |
| O=C1CC(c2cc(F)cc(F)c2)c2cc3c(cc2N1)OCO3 (stereo not given) | inactive: -25.8% |

| SMILES | activity change, positive = activation |
| --- | --- |
| Cc1c(C(=O)N2CCN(c3ccc(F)cc3)CC2)sc2nc3n(c(=O)c12)CCC3 | inactive: -4.78% |
| O=C(Cn1ccn(-c2ccc(F)cc2)c(=O)c1=O)Nc1ccccc1C(F)(F)F | inactive: -10.5% |
| CCCCc1nn2c(=O)cc(COC(=O)c3ccccc3NC(=O)c3cccs3)nc2s1 | inactive: 0% |
| COC(=O)c1ccccc1NC(=O)c1cnn(-c2ccc(F)cc2)c1-n1cccc1 | inactive: -16.7% |
| Cc1ccc(CN(C(=O)COc2ccccc2[N+](=O)[O-])c2ccccn2)cc1 | inactive: -13.9% |
| CCCCCOC(=O)Nc1nc(=O)n([C@@H]2O[C@H](C)[C@@H](O)[C@H]2O)cc1F | inactive: 1.8% |
| CCCN(CCC)CCNC(=O)CN1C(=O)COc2ccc(S(=O)(=O)N3CCOCC3)cc21 | inactive: -9.18% |
| CCC(CC)C(=O)Nc1nnc(S(=O)(=O)N2CCc3ccccc32)s1 | inactive: -13.4% |
| Cc1cccc(OCC(=O)NCCc2nc3ccccc3[nH]2)c1C | inactive: -7.45% |
| O=C(NCc1ccccc1Cl)C1CCN(C(=O)N2CCOc3ccccc32)CC1 | inactive: -11.9% |
| CCOc1ccc(-n2nc(CO)c(C(=O)NCc3ccccn3)n2)cc1 | inactive: 8.1% |
| COC(=O)CSc1nc2sc3c(c2c(=O)n1-c1ccc(C)cc1)CC(C(C)C)OC3 (stereo not given) | inactive: -10.4% |
| CCN(CC)S(=O)(=O)c1ccc2c(c1)N(CC(=O)Nc1ccc(OC)cc1)C(=O)CS2 | inactive: -3.13% |
| Cc1ccccc1CNC(=O)c1oc2c(c1C)-c1nn(Cc3ccc(Cl)cc3)cc1CC2 | inactive: -31.5% |
| CCOc1ccc(NC(=O)C2CCCN(c3cnccn3)C2)cc1 (stereo not given) | inactive: 12.9% |
| c1cc(OCCN2CCCCC2)cc(-c2n[nH]c3ccc(-c4ncn[nH]4)cc23)c1 | inactive: -21% |
| CCOc1ccc(Cl)cc1CNCCCSc1nnnn1C | inactive: 5.5% |
| COc1ccc(/C=C/C(=O)N2CCC(c3nc4ccccc4o3)CC2)cc1OC | inactive: -30.6% |
| COc1ccc(OCC(=O)N2CCN(C(=O)c3cc(OC)c(OC)c(OC)c3)CC2)cc1 | inactive: -1.6% |
| CCOc1ccc(C2N3CC4(C(C)C)CN2CC(C(C)C)(C3)C4=O)cc1OC (stereo not given) | inactive: -19.1% |
| CCOc1ccccc1NC(=O)N(C)CCc1c(C)nn(CC)c1C | inactive: -3.52% |
| Cc1ccc(NC(=O)c2ccc(=O)n(CC(=O)Nc3c(C)cc(C)cc3C)n2)cc1 | inactive: -24.4% |
| Cc1ccc(COc2ccc3oc(-c4ccccc4)c(C(=O)O)c3c2)cc1 | inactive: -3.69% |
| COc1ccc(-n2nc(C(=O)Nc3ccc(Br)cc3C)c3c4ccccc4n(C)c3c2=O)cc1 | inactive: -3.93% |

| SMILES | activity change, positive = activation |
| --- | --- |
| CCOc1ccc(C2C=C(c3cccc(OC)c3)Nc3nnnn32)cc1 (stereo not given) | inactive: -25.3% |
| COc1ccc(C(=O)N2CC(=O)Nc3ccc(C)cc3C2c2ccccc2)cc1OC (stereo not given) | inactive: -4.57% |
| CC(C)(C)c1ccc(C(=O)NNc2ncnc3c2cnn3-c2ccccc2)cc1 | inactive: -7.52% |
| CCN(C(=O)Cn1c(SCC(=O)Nc2ccc(OC)cc2)nc2ccccc21)c1cccc(C)c1 | inactive: -18.8% |
| O=C(COc1ccccc1)NCC(c1cccs1)S(=O)(=O)c1ccc(Cl)cc1 (stereo not given) | inactive: -26.2% |
| COc1cccc(C(=O)Nc2ccc(-n3nncc3-c3ccc(Br)cc3)cc2)c1OC | inactive: -2.3% |
| Cc1cc(C)n2c(Nc3ccccc3C)c(-c3cccs3)nc2n1 | inactive: -12% |
| O=C1CCc2ccc(OCCCCN3CCN(c4cccc(Cl)c4Cl)CC3)cc2N1 | inactive |
| COc1ccc(C2=NN(S(C)(=O)=O)C(c3cn(-c4ccccc4)nc3-c3cccs3)C2)cc1 (stereo not given) | inactive: -8.19% |
| C#CCN1C(=O)C(O)(CC(=O)c2ccc(OC)c(OC)c2)c2cc(Br)ccc21 (stereo not given) | inactive: -15.6% |
| COc1ccc(C(=O)NCC(c2ccc3c(c2)OCO3)N2CCOCC2)cc1 (stereo not given) | inactive: -13.2% |
| Cc1ccc(CN2C(=O)c3ccccc3Sc3ccc(C(=O)NCc4ccco4)cc32)cc1 | inactive: -50.3% |
| Cc1oc2ncnc(N3CCOCC3)c2c1C(=O)N1CCN(c2cccc(C(F)(F)F)c2)CC1 | inactive: -13.1% |
| COc1cccc(-c2ccnc3c(-c4ccc(F)cc4)c(C)nn23)c1 | inactive: 9.83% |
| CCCn1c(=N)c(C(=O)NCc2cccnc2)cc2c(=O)n3cccc(C)c3nc21 | inactive: -4.38% |
| Cc1ccc(Oc2nc3c(c(=O)n(Cc4ccccc4)c(=O)n3C)n2C)cc1C | inactive: 14.5% [at 11.5 µM, percent change from vehicle, -100% = no light] |
| CCN(C(=O)C1CCC(CNS(=O)(=O)c2cccc3nsnc23)CC1)c1ccccc1 (stereo not given) | inactive: -27.1% |
| CCN(C(=O)C1CCC(CNS(=O)(=O)c2cccc3nsnc23)CC1)c1cccc(C)c1 (stereo not given) | inactive: -27.8% |
| CN(C)CCOC(c1ccc(Cl)cc1)c1ccccn1 (stereo not given) | inactive: -9.7% |
| O=C(Cc1ccc(NC(=O)N2CCSc3ncccc32)cc1)NCc1ccccc1 | inactive: -16.4% |
| Cc1cc(C)cc(NC(=O)Cn2c(=O)n(C(C)C)c(=O)c3oc4ccccc4c32)c1 | inactive: -17.3% |
| Cc1cccc2c1CC[C@H](CN1CCC(c3c(Cl)cccc3Cl)CC1)C[C@@H]2O | inactive: 5.16% |
| CCCc1ccc(OCC(=O)Nc2scc(-c3cccs3)c2C(=O)OC)cc1 | inactive: -19.8% |
